Values joined by “and” are separate entries in the source; they are usually repeats but may differ in a detail not shown here. Equal values may be shown once. The inconclusive results got no clear call from the source; some entries with a clear call stand among them for comparison. For part of these data: A potency beside an inconclusive call is a rough fit, not a confirmed value. Active and inactive are the calls of the source. Calls follow the shape of the dose curve; as a rule, active = well fitted curve in the direction sought with a large enough effect; inconclusive = small, poorly fitted or top-dose-only effect, or another doubt; inactive = no such curve, though single readings can be large; an effect the other way counts as inactive or inconclusive.
Assays:
[1] = qHTS of pediatric cancer cell lines to identify multiple opportunities for drug repurposing: Primary screen for A673 cells (AID 1347092); conditions: A673 Ewing sarcoma viability, CellTiter-Glo ATP luminescence, 48 h; activity change, negative = cytotoxic: at 46 µM (top of the series); also: nearly all actives have a fitted effect of over 45% in size; also: potency is read from the fitted curve at half-maximal effect; as to activity change, negative = cytotoxic: % is scaled to controls: 0 for no effect and ±100 for the full control effect
Method in brief: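 A673 cells (500-1,000 cells/well in growth media) were pre-incubated 5 h at 37 degrees C, then exposed to compounds for 48 h. Viability was read as CellTiter-Glo luminescence; concentration-response curves came directly from the primary screen.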

[2] = qHTS of pediatric cancer cell lines to identify multiple opportunities for drug repurposing: Primary screen for BT-37 cells (AID 1347094); also: potency is read from the fitted curve at half-maximal effect;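 as to activity change, negative = cytotoxic: plate controls were DMSO for no effect and bortezomib for full effect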
Method in brief: (§1)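 Readout: CellTiter-Glo luminescence, 48 h treatment. Controls DMSO (neutral) and bortezomib 2.3 µM final (positive). Potency and efficacy taken from primary-screen concentration-response curves.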

[3] = qHTS of pediatric cancer cell lines to identify multiple opportunities for drug repurposing: Primary screen for NB-EBc1 cells (AID 1347095); also: potency is read from the fitted curve at half-maximal effect;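 as to activity change, negative = cytotoxic: plate controls were DMSO neutral control for no effect and bortezomib for full effect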
Method in brief: as §1

[4] = qHTS of pediatric cancer cell lines to identify multiple opportunities for drug repurposing: Primary screen for Saos-2 cells (AID 1347097); also: potency is read from the fitted curve at half-maximal effect; nearly all actives have a fitted effect of over 40% in size
Method in brief: as §1

[5] = qHTS of pediatric cancer cell lines to identify multiple opportunities for drug repurposing: Primary screen for SK-N-SH cells (AID 1347098); also: nearly all actives have a fitted effect of over 65% in size; also: potency is read from the fitted curve at half-maximal effect; as to activity change, negative = cytotoxic: % is scaled to controls: 0 for no effect and ±100 for the full control effect
Method in brief: (§2)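 Cells (500-1,000/well) rested 5 h, then received compounds for 48 h; metabolically active cells were measured by CellTiter-Glo luminescence. Final concentrations spanned up to 46 µM (MIPE, 11-point) or 0.59 nM-46 µM (NPC, 8-point) in primary screens, 11-point in follow-ups.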

[6] = qHTS of pediatric cancer cell lines to identify multiple opportunities for drug repurposing: Primary screen for SJ-GBM2 cells (AID 1347091); also: potency is read from the fitted curve at half-maximal effect;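 as to activity change, negative = cytotoxic: plate controls were DMSO neutral control for no effect and bortezomib for full effect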
Method in brief: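 Viability measured as metabolically active cells via CellTiter-Glo luminescence following 48 hours of compound exposure, 11-point dilutions in confirmatory testing. 500-1,000 cells/well plated 5 hours before dosing; controls were DMSO and 2.3 µM bortezomib.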

[7] = qHTS of pediatric cancer cell lines to identify multiple opportunities for drug repurposing: Primary screen for NB1643 cells (AID 1347099);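 also: plate controls were DMSO neutral control for no effect and bortezomib positive control for full effect; nearly all actives have a fitted effect of over 50% in size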
Method in brief: as §1

[8] = qHTS of pediatric cancer cell lines to identify multiple opportunities for drug repurposing: Primary screen for OHS-50 cells (AID 1347103); also: nearly all actives have a fitted effect of over 40% in size; also: potency is read from the fitted curve at half-maximal effect;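 as to activity change, negative = cytotoxic: plate controls were DMSO neutral control for no effect and bortezomib positive control for full effect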
Method in brief: as §2

[9] = qHTS of pediatric cancer cell lines to identify multiple opportunities for drug repurposing: Primary screen for LAN-5 cells (AID 1347100); conditions: LAN-5 neuroblastoma viability, CellTiter-Glo luminescence, 48 h; activity change, negative = cytotoxic: at 46 µM (top of the series); also: potency is read from the fitted curve at half-maximal effect;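 as to activity change, negative = cytotoxic: plate controls were DMSO neutral control for no effect and bortezomib positive control for full effect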
Method in brief: (§3)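 Viability after 48 h compound treatment at 37C, 500-1,000 cells/well, read as ATP luminescence with CellTiter-Glo. Primary screens used 11-point (MIPE, 0.78 nM-46 µM) or 8-point (NPC, 0.59 nM-46 µM) final concentrations; follow-up screens used 11-point dilutions.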

[10] = qHTS of pediatric cancer cell lines to identify multiple opportunities for drug repurposing: Primary screen for Rh18 cells (AID 1347102); also: nearly all actives have a fitted effect of over 65% in size; also: potency is read from the fitted curve at half-maximal effect; as to activity change, negative = cytotoxic: % is scaled to controls: 0 for no effect and ±100 for the full control effect
Method in brief: as §3

[11] = qHTS of pediatric cancer cell lines to identify multiple opportunities for drug repurposing: Primary screen for BT-12 cells (AID 1347101); also: nearly all actives have a fitted effect of over 25% in size; also: potency is read from the fitted curve at half-maximal effect;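 as to activity change, negative = cytotoxic: plate controls were DMSO for no effect and bortezomib positive control for full effect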
Method in brief: as §2

[12] = qHTS of pediatric cancer cell lines to identify multiple opportunities for drug repurposing: Primary screen for U-2 OS cells (AID 1347096); also: potency is read from the fitted curve at half-maximal effect; nearly all actives have a fitted effect of over 50% in size
Method in brief: as §3

[13] = qHTS of pediatric cancer cell lines to identify multiple opportunities for drug repurposing: Primary screen for MG 63 (6-TG R) cells (AID 1347105); conditions: MG 63 (6-TG R) viability, CellTiter-Glo, 48 h; activity change, negative = cytotoxic: at 46 µM (top of the series); also: nearly all actives have a fitted effect of over 50% in size; also: potency is read from the fitted curve at half-maximal effect; as to activity change, negative = cytotoxic: % is scaled to controls: 0 for no effect and ±100 for the full control effect
Method in brief: as §1

[14] = qHTS of pediatric cancer cell lines to identify multiple opportunities for drug repurposing: Primary screen for Rh30 cells (AID 1347107); also: potency is read from the fitted curve at half-maximal effect; nearly all actives have a fitted effect of over 75% in size
Method in brief: as §3

[15] = qHTS of pediatric cancer cell lines to identify multiple opportunities for drug repurposing: Primary screen for Rh41 cells (AID 1347108); also: potency is read from the fitted curve at half-maximal effect; nearly all actives have a fitted effect of over 70% in size
Method in brief: as §1

[16] = qHTS of pediatric cancer cell lines to identify multiple opportunities for drug repurposing: Confirmatory screen for NB1643 cells (AID 1347109); conditions: NB1643 neuroblastoma cell viability; activity change, negative = cytotoxic: at 45.9 µM (top of the series); also: potency is read from the fitted curve at half-maximal effect; nearly all actives have a fitted effect of over 45% in size
Method in brief: as §3

[17] = qHTS of pediatric cancer cell lines to identify multiple opportunities for drug repurposing: Primary screen for RD cells (AID 1347104); also: potency is read from the fitted curve at half-maximal effect; nearly all actives have a fitted effect of over 55% in size
Method in brief: as §1

[18] = qHTS of pediatric cancer cell lines to identify multiple opportunities for drug repurposing: Primary screen for SK-N-MC cells (AID 1347093); conditions: SK-N-MC viability, CellTiter-Glo luminescence, 48 h; activity change, negative = cytotoxic: at 46 µM (top of the series); also: potency is read from the fitted curve at half-maximal effect
Method in brief: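 Metabolically active cells were quantified by ATP-dependent luminescence (CellTiter-Glo, 15 min at room temperature) following 48 h treatment. Cells had been plated at 500-1,000 per well and settled for 5 h beforehand.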

[19] = qHTS of pediatric cancer cell lines to identify multiple opportunities for drug repurposing: Primary screen for control Hh wild type fibroblast cells (AID 1347106); also: potency is read from the fitted curve at half-maximal effect; nearly all actives have a fitted effect of over 55% in size
Method in brief: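 Cells (500-1,000/well) in growth media were settled 5 h at 37 degrees C, then given compounds for 48 h. Viability was read as CellTiter-Glo luminescence. Primary runs used MIPE at 11 points (0.78 nM-46 µM) and NPC at 8 points (0.59 nM-46 µM); follow-ups used 11 points.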
Tags tell the direction and shape of the fitted curve.

N#CC(=C(O)c1ccc(Cl)cc1Cl)c1nc2cc(Cl)ccc2c(=O)[nH]1
Potency [1]: inactive | Potency [2]: inactive | Potency [3]: inconclusive: 23.5 µM [cytotoxic, single point] | Potency [4]: inconclusive: 14.8 µM [cytotoxic, partial curve, poor fit] | Potency [5]: inactive

C[C@@H]1[C@H](C)CC[C@]2(C(=O)O)CC[C@]3(C)C(=CC[C@@H]4[C@@]5(C)C[C@@H](O)[C@H](O)[C@@](C)(CO)[C@H]5CC[C@]43C)[C@@H]12
Potency [6]: inconclusive: 37.2 µM [cytotoxic, single point] | Potency [4]: inconclusive: 37.2 µM [cytotoxic, single point] | Potency [7]: inactive | Potency [8]: inconclusive: 43.2 µM [cytotoxic, single point]

CCCc1nn(C)c2c(=O)[nH]c(-c3cc(S(=O)(=O)N4CCN(C)CC4)ccc3OCC)nc12
Potency [1]: inconclusive: 23.5 µM [cytotoxic, single point] | Potency [2]: inconclusive: 21.7 µM [cytotoxic, partial curve] | Potency [3]: inconclusive: 23.5 µM [cytotoxic, partial curve, poor fit] | Potency [5]: inconclusive: 21.5 µM [cytotoxic, partial curve] | Potency [9]: inconclusive: 23.5 µM [cytotoxic, partial curve] | Potency [10]: inconclusive: 16.6 µM [cytotoxic, partial curve]

COc1nc(C)nc(Cl)c1NC1=NCCN1
Potency [6]: inactive | Potency [11]: inactive

NCC(=O)Nc1ccc(-n2nc(C(F)(F)F)cc2-c2ccc3c(ccc4ccccc43)c2)cc1
Potency [6]: inconclusive: 37.2 µM [cytotoxic, single point] | Potency [12]: inconclusive: 18.7 µM [cytotoxic, partial curve, poor fit] | Potency [4]: active: 26.4 µM | Potency [5]: inconclusive: 34.1 µM [cytotoxic, single point] | Potency [9]: active: 23.5 µM | Potency [11]: active: 24.3 µM | Potency [10]: active: 26.4 µM | Potency [13]: inconclusive: 37.2 µM [cytotoxic, partial curve, poor fit] | Potency [14]: inconclusive: 1.66 µM [cytotoxic, partial curve] | Potency [15]: inconclusive: 11.8 µM [cytotoxic, partial curve] | Potency [16]: inconclusive: 2.93 µM [cytotoxic, full curve]

CCOC(=O)[C@H](CCc1ccccc1)N[C@H]1CCc2ccccc2N(CC(=O)O)C1=O
Potency [6]: inconclusive: 26.6 µM [cytotoxic, single point] | Potency [5]: inconclusive: 38.6 µM [cytotoxic, single point] and active: 24.1 µM | Potency [11]: inconclusive: 21.9 µM [cytotoxic, single point] and active: 27.3 µM | Potency [8]: inconclusive: 24.6 µM [cytotoxic, single point] and active: 24.3 µM | Potency [17]: inconclusive: 23.7 µM [cytotoxic, single point]

CNC(=O)c1ccc(N2C(=S)N(c3ccc(C#N)c(C(F)(F)F)c3)C(=O)C2(C)C)cc1F
Potency [6]: inconclusive: 5.26 µM [cytotoxic, full curve, poor fit] | Potency [5]: inconclusive: 27.1 µM [cytotoxic, single point] | Potency [10]: inactive | Potency [8]: inconclusive: 6.85 µM [cytotoxic, full curve]

COc1ccc2c(OCc3nnc4ccc(-c5ccccc5)nn34)ccnc2c1
Potency [6]: inconclusive: 0.332 µM [cytotoxic, full curve] | Potency [3]: inactive | Potency [11]: inactive | Potency [8]: inactive | Potency [15]: inconclusive: 5.26 µM [cytotoxic, partial curve]

COc1cc2c(cc1OC)C1CC(=O)C(CC(C)C)CN1CC2 (stereo unspecified)
Potency [6]: inactive | Potency [13]: inactive

Cc1ccc2c(=O)c3cccc(CC(=O)O)c3oc2c1C
Potency [1]: active: 9.35 µM | Potency [2]: inconclusive: 24.3 µM [cytotoxic, partial curve, poor fit] | Potency [3]: inconclusive: 26.4 µM [cytotoxic, single point] | Potency [4]: inconclusive: 26.4 µM [cytotoxic, single point] | Potency [9]: inconclusive: 26.4 µM [cytotoxic, single point] | Potency [13]: active: 23.5 µM | Potency [15]: active: 23.5 µM

C1COC(NC(C2CC2)C2CC2)=N1
Potency [1]: inconclusive: 23.5 µM [cytotoxic, partial curve, poor fit] | Potency [2]: inactive | activity change, negative = cytotoxic [9]: inconclusive: -40% [cytotoxic]

N[C@@H](Cc1ccc(O)c(O)c1)C(=O)O
Potency [1]: inconclusive: 37.2 µM [cytotoxic, single point] | Potency [5]: inactive

N#CC(=C(N)Sc1ccc(N)cc1)c1ccccc1C(F)(F)F
Potency [18]: inconclusive: 0.235 µM [cytotoxic, full curve, poor fit] | Potency [2]: inconclusive: 6.85 µM [cytotoxic, partial curve] | Potency [3]: inconclusive: 1.05 µM [cytotoxic, full curve] | Potency [4]: inconclusive: 4.18 µM [cytotoxic, partial curve, poor fit] | Potency [9]: inconclusive: 14.8 µM [cytotoxic, partial curve] | Potency [10]: inactive | Potency [8]: inconclusive: 19.3 µM [cytotoxic, partial curve] | Potency [17]: inconclusive: 1.66 µM [cytotoxic, full curve] | Potency [19]: inconclusive: 1.18 µM [cytotoxic, full curve, poor fit] | Potency [15]: inconclusive: 13.2 µM [cytotoxic, partial curve]

Reference: PubChem BioAssay (NCATS)
